These are yes or no findings as the source states them, for the method shown. Binding seen in cells or lysates may run through a third protein. Some results given as binding are weak or reduced against the parent protein; the word gives no strength. For some of these results: Where a sequence is shown, tags or fusion partners need not be part of it.

Protein sequences, listed by entry. Tags and fused reporters are not part of them. Lines headed by an entry give the natural chain unless they say otherwise; changes in a name come on top.
UniProt P49023: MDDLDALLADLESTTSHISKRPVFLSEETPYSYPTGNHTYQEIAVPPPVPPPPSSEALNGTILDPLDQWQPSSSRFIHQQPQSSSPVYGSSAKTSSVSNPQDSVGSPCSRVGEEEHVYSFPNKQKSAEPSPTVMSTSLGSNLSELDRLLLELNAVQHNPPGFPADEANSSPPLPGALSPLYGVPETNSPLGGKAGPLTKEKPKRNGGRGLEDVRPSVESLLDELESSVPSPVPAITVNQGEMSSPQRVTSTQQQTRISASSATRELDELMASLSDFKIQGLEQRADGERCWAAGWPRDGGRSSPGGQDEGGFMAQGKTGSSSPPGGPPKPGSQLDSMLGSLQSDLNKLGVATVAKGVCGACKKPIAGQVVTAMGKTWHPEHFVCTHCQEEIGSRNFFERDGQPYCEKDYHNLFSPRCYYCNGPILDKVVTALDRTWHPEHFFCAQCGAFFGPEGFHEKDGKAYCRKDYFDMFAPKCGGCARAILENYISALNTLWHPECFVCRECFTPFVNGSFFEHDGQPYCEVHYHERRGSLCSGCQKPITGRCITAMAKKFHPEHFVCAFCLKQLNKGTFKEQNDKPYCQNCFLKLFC
UniProt Q96P20: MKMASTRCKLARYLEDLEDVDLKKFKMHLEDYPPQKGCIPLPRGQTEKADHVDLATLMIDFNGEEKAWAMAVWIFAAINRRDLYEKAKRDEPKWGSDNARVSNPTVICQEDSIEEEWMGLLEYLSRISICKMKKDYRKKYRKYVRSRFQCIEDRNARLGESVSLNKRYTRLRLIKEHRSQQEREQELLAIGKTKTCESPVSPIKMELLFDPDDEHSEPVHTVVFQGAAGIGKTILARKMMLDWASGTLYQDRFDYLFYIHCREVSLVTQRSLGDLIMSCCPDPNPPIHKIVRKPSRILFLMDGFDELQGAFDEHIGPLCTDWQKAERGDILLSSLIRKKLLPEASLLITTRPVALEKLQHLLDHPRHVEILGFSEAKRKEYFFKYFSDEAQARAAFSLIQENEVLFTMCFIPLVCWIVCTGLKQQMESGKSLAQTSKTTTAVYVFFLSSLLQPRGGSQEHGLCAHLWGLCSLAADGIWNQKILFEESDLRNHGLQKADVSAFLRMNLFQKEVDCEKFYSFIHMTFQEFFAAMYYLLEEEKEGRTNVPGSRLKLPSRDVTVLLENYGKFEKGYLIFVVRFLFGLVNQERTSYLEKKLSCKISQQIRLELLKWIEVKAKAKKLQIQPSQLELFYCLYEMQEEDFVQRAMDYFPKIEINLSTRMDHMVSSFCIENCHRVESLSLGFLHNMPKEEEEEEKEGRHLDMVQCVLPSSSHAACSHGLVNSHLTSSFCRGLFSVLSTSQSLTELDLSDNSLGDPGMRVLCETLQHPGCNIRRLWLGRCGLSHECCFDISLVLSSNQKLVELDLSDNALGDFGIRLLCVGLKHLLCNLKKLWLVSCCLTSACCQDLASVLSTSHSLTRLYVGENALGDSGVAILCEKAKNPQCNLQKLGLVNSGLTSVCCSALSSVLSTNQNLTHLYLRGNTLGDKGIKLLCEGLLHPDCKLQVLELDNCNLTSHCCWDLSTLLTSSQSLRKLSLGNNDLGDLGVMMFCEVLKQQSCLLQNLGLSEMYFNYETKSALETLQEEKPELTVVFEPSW
UniProt Q8R4B8: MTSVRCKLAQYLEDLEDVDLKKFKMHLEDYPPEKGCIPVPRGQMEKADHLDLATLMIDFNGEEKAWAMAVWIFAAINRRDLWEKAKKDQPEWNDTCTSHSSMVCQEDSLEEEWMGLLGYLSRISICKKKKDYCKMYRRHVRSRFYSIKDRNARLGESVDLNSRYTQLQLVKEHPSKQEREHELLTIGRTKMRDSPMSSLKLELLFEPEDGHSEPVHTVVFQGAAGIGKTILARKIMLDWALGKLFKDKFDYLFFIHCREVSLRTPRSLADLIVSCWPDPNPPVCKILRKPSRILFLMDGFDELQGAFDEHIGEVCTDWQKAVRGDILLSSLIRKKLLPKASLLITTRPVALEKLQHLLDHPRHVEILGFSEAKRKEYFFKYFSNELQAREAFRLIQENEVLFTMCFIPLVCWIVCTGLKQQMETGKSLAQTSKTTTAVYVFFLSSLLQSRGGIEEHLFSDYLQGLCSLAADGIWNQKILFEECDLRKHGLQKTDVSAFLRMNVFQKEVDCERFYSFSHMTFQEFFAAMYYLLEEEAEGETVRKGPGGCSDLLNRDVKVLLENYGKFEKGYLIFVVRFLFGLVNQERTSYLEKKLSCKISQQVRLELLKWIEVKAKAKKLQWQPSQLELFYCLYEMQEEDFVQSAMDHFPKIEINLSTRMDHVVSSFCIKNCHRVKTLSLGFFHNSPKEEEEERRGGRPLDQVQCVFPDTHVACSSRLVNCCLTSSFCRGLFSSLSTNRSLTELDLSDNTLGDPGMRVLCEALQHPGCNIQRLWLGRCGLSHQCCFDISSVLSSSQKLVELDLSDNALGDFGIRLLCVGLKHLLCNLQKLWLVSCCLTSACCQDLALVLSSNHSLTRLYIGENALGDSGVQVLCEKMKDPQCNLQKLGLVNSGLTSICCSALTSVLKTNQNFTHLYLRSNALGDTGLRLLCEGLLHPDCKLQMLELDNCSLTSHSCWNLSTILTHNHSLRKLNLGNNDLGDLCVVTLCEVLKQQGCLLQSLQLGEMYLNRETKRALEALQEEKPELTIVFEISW
UniProt Q8VI36: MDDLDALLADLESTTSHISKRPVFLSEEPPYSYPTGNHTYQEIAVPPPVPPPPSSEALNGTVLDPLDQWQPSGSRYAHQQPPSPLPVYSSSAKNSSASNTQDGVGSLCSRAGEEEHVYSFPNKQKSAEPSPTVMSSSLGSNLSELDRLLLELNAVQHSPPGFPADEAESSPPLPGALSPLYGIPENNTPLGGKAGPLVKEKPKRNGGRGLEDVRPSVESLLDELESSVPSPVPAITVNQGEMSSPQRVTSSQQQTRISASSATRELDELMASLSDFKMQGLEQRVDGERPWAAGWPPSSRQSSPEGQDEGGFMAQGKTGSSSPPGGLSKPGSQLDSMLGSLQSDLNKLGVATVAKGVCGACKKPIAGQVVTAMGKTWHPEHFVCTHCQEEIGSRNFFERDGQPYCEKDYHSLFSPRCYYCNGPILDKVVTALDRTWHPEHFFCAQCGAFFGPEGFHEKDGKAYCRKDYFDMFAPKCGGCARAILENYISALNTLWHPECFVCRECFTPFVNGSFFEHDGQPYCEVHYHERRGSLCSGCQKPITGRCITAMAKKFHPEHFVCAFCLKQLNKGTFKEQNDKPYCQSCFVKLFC

This note sets out measurements from publication PMC7694937.

For one assay, the target named is GST-Paxillin (human) (UniProt P49023). The assay is described as follows: pull-down; 10 μg purified GST fusion protein on glutathione-Sepharose beads incubated with lysate of HEK293T cells transfected with the Flag-tagged partner, 4 h at 4 °C; washed three times; immunoblot with anti-GST and anti-Flag; only the target purified. (In general: A western blot detects proteins with antibodies after separation by electrophoresis.)

The target in assay [1] is T1, Flag-USP13(1–300) (human) (UniProt Q92995).
T1 sequence: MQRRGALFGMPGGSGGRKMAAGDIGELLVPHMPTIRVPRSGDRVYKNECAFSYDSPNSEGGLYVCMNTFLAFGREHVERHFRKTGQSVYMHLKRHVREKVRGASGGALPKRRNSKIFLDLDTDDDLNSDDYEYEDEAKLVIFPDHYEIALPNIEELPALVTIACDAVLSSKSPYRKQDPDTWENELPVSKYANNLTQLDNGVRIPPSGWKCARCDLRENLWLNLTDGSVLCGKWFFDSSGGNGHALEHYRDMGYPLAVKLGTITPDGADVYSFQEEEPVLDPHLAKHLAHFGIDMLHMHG
In words: co-IP; HEK293T cells co-transfected with Flag- and HA-tagged plasmids; lysis in 50 mM Tris-HCl pH 7.5, 300 mM NaCl, 1% Triton-X, 5 mM EDTA, 10% glycerol; IP with anti-Flag antibody and Protein-G Sepharose, immunoblot with anti-HA and anti-Flag; in some panels cells treated with DMSO or ATP (5 mM) for 2 h; Fig. 6d-g shown as pairs of IPs whose antibodies the legend does not name.

Assay [2] concerns the target T2, Flag-USP13(301–863) (human) (UniProt Q92995).
T2 sequence: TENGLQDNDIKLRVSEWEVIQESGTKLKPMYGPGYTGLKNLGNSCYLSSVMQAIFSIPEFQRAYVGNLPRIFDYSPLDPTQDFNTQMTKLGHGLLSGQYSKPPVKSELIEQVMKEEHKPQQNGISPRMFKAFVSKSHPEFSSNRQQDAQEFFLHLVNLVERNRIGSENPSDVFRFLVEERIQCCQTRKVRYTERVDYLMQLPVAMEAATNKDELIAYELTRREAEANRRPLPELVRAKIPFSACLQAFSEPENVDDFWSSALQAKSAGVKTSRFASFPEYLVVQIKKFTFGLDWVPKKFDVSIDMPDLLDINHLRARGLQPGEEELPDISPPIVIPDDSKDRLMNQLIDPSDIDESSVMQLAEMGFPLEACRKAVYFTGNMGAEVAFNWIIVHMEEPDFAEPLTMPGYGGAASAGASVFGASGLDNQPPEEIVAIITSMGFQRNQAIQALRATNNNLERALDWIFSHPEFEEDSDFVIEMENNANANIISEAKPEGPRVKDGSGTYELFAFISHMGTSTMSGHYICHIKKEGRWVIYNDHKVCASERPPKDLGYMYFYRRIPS
The description is as above.

The target in assay [3] is T3, Flag-USP13(625–863) (human) (UniProt Q92995).
T3 sequence: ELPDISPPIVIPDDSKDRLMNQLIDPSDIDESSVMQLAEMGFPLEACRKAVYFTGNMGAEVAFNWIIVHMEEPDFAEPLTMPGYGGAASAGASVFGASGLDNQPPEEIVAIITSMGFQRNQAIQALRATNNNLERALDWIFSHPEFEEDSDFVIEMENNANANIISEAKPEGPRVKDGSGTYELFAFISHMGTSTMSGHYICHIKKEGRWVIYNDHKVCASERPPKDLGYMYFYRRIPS
Described as above.

In assay [4] the target is T4, Flag-USP13(301–624) (human) (UniProt Q92995).
T4 sequence: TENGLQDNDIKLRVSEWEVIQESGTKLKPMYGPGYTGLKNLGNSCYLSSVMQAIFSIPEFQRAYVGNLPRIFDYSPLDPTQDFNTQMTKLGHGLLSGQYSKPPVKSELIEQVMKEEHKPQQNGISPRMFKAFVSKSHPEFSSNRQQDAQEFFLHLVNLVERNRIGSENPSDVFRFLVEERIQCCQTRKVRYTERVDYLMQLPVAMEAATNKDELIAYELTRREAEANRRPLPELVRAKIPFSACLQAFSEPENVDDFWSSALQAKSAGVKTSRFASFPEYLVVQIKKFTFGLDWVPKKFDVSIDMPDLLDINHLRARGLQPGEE
The description is as above.

In the next assay the target is T5, Flag-USP13 (human) (UniProt Q92995).
T5 sequence: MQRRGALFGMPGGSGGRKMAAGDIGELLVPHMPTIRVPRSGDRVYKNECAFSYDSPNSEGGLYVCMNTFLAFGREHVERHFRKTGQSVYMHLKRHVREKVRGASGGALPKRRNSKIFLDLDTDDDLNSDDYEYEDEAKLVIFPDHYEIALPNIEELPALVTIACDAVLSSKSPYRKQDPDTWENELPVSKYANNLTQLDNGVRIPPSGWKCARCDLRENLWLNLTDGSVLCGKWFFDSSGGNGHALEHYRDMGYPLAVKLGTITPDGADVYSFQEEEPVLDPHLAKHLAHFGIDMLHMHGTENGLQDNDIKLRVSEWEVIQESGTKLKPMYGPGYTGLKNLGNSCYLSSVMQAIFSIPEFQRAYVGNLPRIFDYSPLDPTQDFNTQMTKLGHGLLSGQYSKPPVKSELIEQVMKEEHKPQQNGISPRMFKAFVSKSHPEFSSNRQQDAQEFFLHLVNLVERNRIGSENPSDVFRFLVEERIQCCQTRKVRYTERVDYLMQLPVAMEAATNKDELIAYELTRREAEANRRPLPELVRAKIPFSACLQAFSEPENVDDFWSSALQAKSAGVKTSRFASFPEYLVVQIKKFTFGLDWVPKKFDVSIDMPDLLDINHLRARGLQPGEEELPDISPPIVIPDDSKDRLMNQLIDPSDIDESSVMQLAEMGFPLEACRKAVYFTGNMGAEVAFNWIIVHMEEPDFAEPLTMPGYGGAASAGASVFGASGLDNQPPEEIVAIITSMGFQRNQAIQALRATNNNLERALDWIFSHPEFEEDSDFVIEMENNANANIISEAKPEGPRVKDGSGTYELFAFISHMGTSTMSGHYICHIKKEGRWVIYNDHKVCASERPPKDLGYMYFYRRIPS
The description is as above.

In assay [5] the target is T6, P2X7R (endogenous, THP-1 macrophages) (human (endogenous in THP-1)) (UniProt Q99572).
T6 sequence: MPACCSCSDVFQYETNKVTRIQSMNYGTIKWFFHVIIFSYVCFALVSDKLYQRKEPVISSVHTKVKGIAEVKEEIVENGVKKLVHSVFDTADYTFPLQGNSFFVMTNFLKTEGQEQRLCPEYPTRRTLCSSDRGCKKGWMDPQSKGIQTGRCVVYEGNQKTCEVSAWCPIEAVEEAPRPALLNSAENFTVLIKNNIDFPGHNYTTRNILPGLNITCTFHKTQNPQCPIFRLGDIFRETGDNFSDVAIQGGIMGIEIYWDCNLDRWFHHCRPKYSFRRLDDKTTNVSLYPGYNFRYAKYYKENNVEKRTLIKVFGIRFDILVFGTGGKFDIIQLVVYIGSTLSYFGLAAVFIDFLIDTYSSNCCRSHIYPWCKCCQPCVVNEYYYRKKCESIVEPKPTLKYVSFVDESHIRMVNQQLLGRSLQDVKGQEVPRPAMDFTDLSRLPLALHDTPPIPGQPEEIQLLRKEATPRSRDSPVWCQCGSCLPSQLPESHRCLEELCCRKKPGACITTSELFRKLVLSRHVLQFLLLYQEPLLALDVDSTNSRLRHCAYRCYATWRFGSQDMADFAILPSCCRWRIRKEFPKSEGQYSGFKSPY
The assay is described as follows: co-IP; endogenous proteins in TPA-differentiated THP-1 macrophages, treated with DMSO/mock or ATP (5 mM; 2 h, or 30 and 60 min); lysis in 50 mM Tris-HCl pH 7.5, 150 mM NaCl, 0.1% Nonidet P40, 5 mM EDTA, 10% glycerol; precipitating antibody not named.

In assay [6] the target is NLRP3 (endogenous, THP-1 macrophages) (human (endogenous in THP-1)) (UniProt Q96P20). Described as above.
Assay [7] addresses NLRP3 (endogenous, mouse BMDMs) (mouse (endogenous in BMDMs)) (UniProt Q8R4B8). The assay is described as follows: co-IP; endogenous proteins in LPS-primed (1 μg/ml, 6 h) BMDMs of C57BL/6 mice, stimulated with DMSO or ATP (5 mM) for 30 min; precipitating antibody not named.
For another assay, the target named is T7, Flag-P2X7R (UniProt Q99572).
T7 sequence: T6 sequence
The assay is described as follows: co-IP; HEK293T cells co-transfected with Flag- and HA-tagged plasmids; lysis in 50 mM Tris-HCl pH 7.5, 300 mM NaCl, 1% Triton-X, 5 mM EDTA, 10% glycerol; IP with anti-Flag antibody and Protein-G Sepharose, immunoblot with anti-HA and anti-Flag; in some panels cells treated with DMSO or ATP (5 mM) for 2 h; Fig. 6d-g shown as pairs of IPs whose antibodies the legend does not name.

A further assay addresses Flag-NLRP3 (human) (UniProt Q96P20). Described as above.

Consider Flag-NLRP3 (from UniProt Q96P20 1-1036), for which the binding result with GST-Paxillin (human) was “binds”.

With HA-NLRP3 (from UniProt Q96P20 1-1036), the binding entry is given as “no binding” in assay [1]; “binds” in [2]; “binds” in [3]; “no binding” in assay [4]; “binds” with Flag-USP13 (human).

As to “Paxillin (endogenous, THP-1 macrophages) (from UniProt P49023 1-591)”, the binding entry in assay [5] and in [6] was “binds” throughout.

“Paxillin (endogenous, mouse BMDMs) (from UniProt Q8VI36 1-591)”: the binding entry in assay [7] is given as “binds”.

Turning to “HA-Paxillin(Y31A) (from UniProt P49023 1-591)”, the binding result was “binds” in the assay with Flag-P2X7R, “binds” in the assay with Flag-NLRP3 (human) and “no binding” with Flag-USP13 (human).

In the case of “HA-Paxillin(Y118A) (from UniProt P49023 1-591)”, the binding entry was “binds” with Flag-P2X7R, “no binding” in the assay with Flag-NLRP3 (human) and “binds” with Flag-USP13 (human).

Regarding “HA-PYRIN (from UniProt Q96P20 1-93) (domain or fragment)”, in the assay with Flag-USP13 (human), the binding entry was “no binding”.
